Assay results from article PMC4403821.
These are yes or no findings as the source states them, for the method shown. For some assays here: Binding seen in cells or lysates may run through a third protein. Some binding calls cover weakened binding; strength is not graded here.

Sequences of proteins named here, by UniProt entry; tags and fusion partners are left off. Residues count along the entry.
UniProt Q98146: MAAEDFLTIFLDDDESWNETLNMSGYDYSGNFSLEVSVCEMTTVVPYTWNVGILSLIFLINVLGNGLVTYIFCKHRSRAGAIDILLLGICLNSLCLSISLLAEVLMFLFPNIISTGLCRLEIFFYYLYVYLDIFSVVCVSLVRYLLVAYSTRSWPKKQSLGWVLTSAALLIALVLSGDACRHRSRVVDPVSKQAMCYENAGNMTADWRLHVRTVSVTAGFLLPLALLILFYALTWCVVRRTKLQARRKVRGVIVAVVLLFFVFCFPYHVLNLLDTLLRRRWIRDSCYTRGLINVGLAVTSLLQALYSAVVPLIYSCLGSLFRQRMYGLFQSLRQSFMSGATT
UniProt P02778, residues 22-98: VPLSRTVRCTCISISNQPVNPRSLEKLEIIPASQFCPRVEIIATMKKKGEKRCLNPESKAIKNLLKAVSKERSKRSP
UniProt P49407: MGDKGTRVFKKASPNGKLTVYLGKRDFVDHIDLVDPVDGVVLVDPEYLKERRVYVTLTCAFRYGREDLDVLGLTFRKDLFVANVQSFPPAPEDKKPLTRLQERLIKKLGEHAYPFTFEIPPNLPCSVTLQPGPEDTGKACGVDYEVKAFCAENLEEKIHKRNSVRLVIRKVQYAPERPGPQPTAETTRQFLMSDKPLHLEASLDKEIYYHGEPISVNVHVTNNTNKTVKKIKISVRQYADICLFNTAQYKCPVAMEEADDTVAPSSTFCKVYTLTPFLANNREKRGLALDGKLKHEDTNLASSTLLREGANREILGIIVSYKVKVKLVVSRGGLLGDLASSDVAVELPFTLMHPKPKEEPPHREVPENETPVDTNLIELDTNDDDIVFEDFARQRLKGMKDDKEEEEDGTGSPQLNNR

Columns and labels:
[1] = target: ORF74-Rluc8 (Kaposi's sarcoma-associated herpesvirus (KSHV)) (UniProt Q98146); experiment: radioligand binding; whole transfected HEK293T cells, 100 pM ^125I-CXCL10 with increasing unlabeled CXCL10, 3h at 4°C, 50 mM HEPES pH 7.4, 1 mM CaCl2, 5 mM MgCl2, 0.5% BSA; washes with 0.5 M NaCl; Ki from IC50 by Cheng and Prusoff; only the binder purified
[2] = target: WT-ORF74 (Kaposi's sarcoma-associated herpesvirus (KSHV)) (UniProt Q98146); experiment: as above
[3] = target: ORF74-Rluc8 (Kaposi's sarcoma-associated herpesvirus (KSHV)) (UniProt Q98146); experiment: FRET or BRET; saturation BRET without agonist (basal): constant ORF74-Rluc8 donor DNA with increasing β-arrestin1/2-eYFP acceptor DNA in HEK293T
[4] = target: ORF74-Rluc8 (Kaposi's sarcoma-associated herpesvirus (KSHV)) (UniProt Q98146); experiment: condition: only stimulated with CXCL10 alone, no agonist; FRET or BRET; HEK293T co-expressing ORF74-Rluc8 and β-arrestin1/2-eYFP, stimulated with increasing concentrations of CXCL10 alone, 10 min at 37°C, then 5 μM coelenterazine-h 5 min
[5] = target: ORF74-Rluc8 (Kaposi's sarcoma-associated herpesvirus (KSHV)) (UniProt Q98146); experiment: FRET or BRET; HEK293T co-expressing ORF74-Rluc8 (WT or mutant, donor) and β-arrestin1/2-eYFP (acceptor), DNA 1:4; stimulated with the agonists CXCL1 or CXCL8 (increasing concentrations or 300 nM CXCL1) 10 min at 37°C, then 5 μM coelenterazine-h 5 min; HBSS with 0.1% BSA

Substance | binding [1] | binding [2] | binding [3] | binding [4] | binding [5]
^125I-CXCL10 (from UniProt P02778 22-98) (ligand) | binds | binds | – | – | –
β-arrestin2-eYFP (from UniProt P32121 1-409) | – | – | no binding (condition: without agonist (basal)) | no binding | binds
β-arrestin1-eYFP (from UniProt P49407 1-418) | – | – | no binding (condition: without agonist (basal)) | no binding | binds
